Measurements as given in article PMC6919601, “Identification of Plasmodium dipeptidyl aminopeptidase allosteric inhibitors by high throughput screening” (PLoS ONE, 2019).
In all, about 110,000 compounds went through this assay and about 230 (0.21%) showed an effect of 50% or more. The list shows a part of the results.

molecular target: DPAP1 (Plasmodium falciparum, UniProt Q8IIJ9); experiment: primary screen, percent inhibition; read by cleavage of a fluorogenic dipeptide substrate; higher = more effect of the substance; set-up: species or system P. falciparum D10 trophozoite lysates; single well
Sequence (Q8IIJ9 whole entry, looked up): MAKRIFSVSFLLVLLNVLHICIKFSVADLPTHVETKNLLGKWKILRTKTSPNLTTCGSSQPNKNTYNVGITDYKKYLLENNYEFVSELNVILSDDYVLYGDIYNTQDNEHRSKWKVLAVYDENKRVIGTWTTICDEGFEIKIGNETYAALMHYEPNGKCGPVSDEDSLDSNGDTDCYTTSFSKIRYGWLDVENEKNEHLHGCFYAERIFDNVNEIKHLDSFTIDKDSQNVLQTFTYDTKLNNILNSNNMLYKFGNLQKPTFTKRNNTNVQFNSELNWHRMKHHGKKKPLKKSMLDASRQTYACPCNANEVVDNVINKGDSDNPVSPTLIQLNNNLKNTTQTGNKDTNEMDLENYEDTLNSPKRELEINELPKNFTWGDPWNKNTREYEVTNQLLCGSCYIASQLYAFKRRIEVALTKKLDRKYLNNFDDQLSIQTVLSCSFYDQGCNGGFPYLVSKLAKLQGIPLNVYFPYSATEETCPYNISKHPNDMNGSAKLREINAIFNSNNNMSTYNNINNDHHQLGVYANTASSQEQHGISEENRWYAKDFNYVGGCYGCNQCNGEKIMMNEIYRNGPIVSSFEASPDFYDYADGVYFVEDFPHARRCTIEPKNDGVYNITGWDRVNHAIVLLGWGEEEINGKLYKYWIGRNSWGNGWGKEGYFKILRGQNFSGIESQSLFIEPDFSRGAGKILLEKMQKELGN
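Note: 30 min substrate incubation versus DMSO and 10 µM JCP410 controls.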

Compound	% Inhibition @ 10 uM [%]
Cc1ccc(C)c(NC(=O)/C(=C\c2ccco2)NC(=O)c2ccccc2)c1	0.76
CC(C)CC(C(=O)N1CCN(c2ccccn2)CC1)N1Cc2ccccc2C1=O (stereo not drawn)	0.789
Cc1ccc(CSc2nc3nccnc3c(=O)n2CCc2ccccc2)cc1	5
CCCn1c2ccccc2c2cnn(CC(=O)NCCN(Cc3ccccc3)C(C)C)c(=O)c21	-5.56
COc1cc(O)c(CCC(=O)c2ccc(OC)c(OC)c2)c(OC)c1	5.99
CCOc1cc(NC(=O)C(C(F)(F)F)C(F)(F)F)c(OCC)cc1NC(=O)c1ccccc1	1.88
CCCCN1C(=O)c2cccc3c(Cl)ccc1c23	-2.28
NC(=O)CSc1nnc(-c2ccncc2)n1-c1ccc(Cl)cc1	-3.1
CCN1C(=O)S/C(=C/c2cn(C)c3ccccc23)C1=O	3.86
C=CCNC(=O)c1ccccc1NS(=O)(=O)c1ccc(OC)c(Cl)c1Cl	-6.08
Cc1cc(-c2ccccc2)nc2cc(C(N)=O)nn12	7.85
O=C(c1cc2ccc3cccnc3c2[nH]1)N1CCN(C(=O)c2ccco2)CC1	4.6
Cc1nc2ccccc2c(=O)n1-c1ccccc1O	-3.44
CC(C)(C)C1CCC(OCC(O)CN2CCOCC2)CC1 (stereo not drawn)	3.15
OCCN1CCN(Cc2ccc3ccccc3c2)CC1	3.85
COc1cc(OC)c([C@H]2C=C(C)[C@H]3C[C@@H]2C3(C)C)c(OC)c1	-9.66
Cc1cccc(OCC(=O)Nc2cccc(O)c2)c1	1.33
CCC(=O)N1c2ccccc2N=C2CC(C)(C)CC(O)=C2C1c1ccccc1F (stereo not drawn)	-2.54
Cc1ccc([N+](=O)[O-])cc1NC1=NS(=O)(=O)c2ccccc21	-5.96
COc1ccc(/C=c2/sc3nc4ccccc4n3c2=O)cc1OC	-6.74
CCCC(=O)Nc1nn2c(-c3ccccc3C)nnc2s1	-1.56
CCc1nn(CC(=O)N2CCC(C(N)=O)CC2)c(=O)c2cc3sccc3n12	3.4
COc1cc(CN2CC(C)OC(C)C2)cc2c1OCO2 (stereo not drawn)	-3.27
Cc1ccc(S(=O)(=O)/N=S(\Cc2ccccc2)CC2CC2(Cl)Cl)cc1 (stereo not drawn)	-0.0626
Cc1ccnc(NC(=O)CC/N=c2/c(N3CCCC3)c(O)c2=O)c1	-1.72
C=C1C(C(=O)Nc2ccc(N3CCCCC3)cc2)C1C(=O)Nc1ccc(N2CCCCC2)cc1 (stereo not drawn)	1.71

Compound	% Inhibition @ 10 uM [%]
Cc1ccc(S(=O)(=O)[C@@H]2CCCC[C@H]2O)cc1	0.812
COc1cc2c(cc1OC)C(c1cccc(F)c1)N(C)CC2 (stereo not drawn)	-6.12
CCC(C)NC(=O)c1cc2nc(-c3ccc(C)cc3)cc(C(F)(F)F)n2n1 (stereo not drawn)	-1.1
O=c1n(CN2CCOCC2)nc2n1-c1ccccc1SC2	23.5
Cc1ccc(NC(=O)COc2cccc3ccc(C)nc23)c(Br)c1	3.49
COC(=O)CCC1(C)CN(C)CCC1=O (stereo not drawn)	1.13
CCOC(=O)N1CCN(c2c(N3CCc4ccccc4C3)c(=O)c2=O)CC1	0.277
O=C(Nc1ccccc1)NC1CCCCCCC1	-7.56
O=C(CCN1C(=O)c2ccccc2C1=O)N1CCOCC1	3.04
CCn1c2ccccc2c2cc(NC(=O)COc3ccc(C)cc3)ccc21	-3.48
Cc1cc(=O)n2c(C)csc2n1	2
Cc1ccccc1N1C(=O)C2C3CCC(C3)C2C1=O (stereo not drawn)	0.992
CC(NC(=O)CN1N=C(c2ccccc2)Oc2ccccc2C1=O)c1ccccc1 (stereo not drawn)	-2.11
CC/N=C1\S/C(=C\c2cccn2-c2ccc(N(C)C)cc2)C(=O)N1CC	2.48
c1coc(CN(Cc2ccco2)c2ncnc3c2oc2ccccc23)c1	0.605
COc1ccccc1-c1cnc(OC(C)(C)C)nc1OC(C)(C)C	-5.21
COc1ccc(-n2ncc3c(NCc4cccs4)ncnc32)cc1	7.33
CCC(C(=O)O)n1nc(C)c2c(C)n(-c3ccc(C)cc3)nc2c1=O (stereo not drawn)	-0.0309
O=C(CN1C(=O)c2ccccc2C1=O)NC1CCCCNC1=O (stereo not drawn)	0.238
COc1ccc(NC(=O)CN(c2cccc(OC)c2)S(=O)(=O)c2ccccc2)cc1	3.17
O=C(COc1ccccc1)NC(Cc1ccccc1)C(=O)O (stereo not drawn)	2.05
Cc1ccc(-n2cnnn2)c(Br)c1	-3.49
COc1ccccc1C1C(C(=O)c2ccccc2)=C(O)C(=O)N1Cc1cccnc1 (stereo not drawn)	4.66
CC(C)NC(=O)C1CCCN(S(=O)(=O)N2CCC3(CC2)OCCO3)C1 (stereo not drawn)	0.0525
CC(C)C[C@H](NC(=O)c1ccccc1C1CCCCC1)C(=O)NCC#N	3.19
CCOC(=O)N1CCC(NS(=O)(=O)c2ccc(-c3cc(C(F)(F)F)no3)s2)CC1	3.41

Compound	% Inhibition @ 10 uM [%]
Cc1c2cnn(CC(=O)NCCC(C)C)c(=O)c2c(C)n1Cc1ccccc1Cl	1.22
O=C(O)/C=C/c1ccc(S(=O)(=O)NCCO)cc1	-6.83
CC(=O)Nc1ccc(-c2csc(-c3c[nH]c4ccccc34)n2)cc1	46.6
O=C(/C=C\Nc1ccc2c(c1)OCO2)c1ccc2c(c1)OCO2	-1.07
CCOc1ccc(N2C(=O)c3ccccc3NC2c2cc(OC)ccc2O)cc1 (stereo not drawn)	-3.19
N=C1/C(=C\c2ccco2)C(=O)N=C2SC(N3CCOCC3)=NN12	-3.44
Cc1cc(O)c(C2=Nc3ccccc3SC(c3cc(Cl)cc(Cl)c3O)C2)c(=O)o1 (stereo not drawn)	-2.02
O=S1(=O)CC=C(CNCc2ccccc2)C1	-0.424
CN(Cc1ccccc1)Cc1ccccn1	-6
Nc1cc(O)nc2nnc(SCc3ccc(Cl)cc3Cl)n12	-4.85
CCCCN(C)S(=O)(=O)c1cc(-c2nn(C)c(=O)c3ccccc23)ccc1C	5.3
Cc1ccc(NC(=O)C(=O)NC2CCCCC2)cc1C	-4.01
COc1ccc2occ(CC(=O)Nc3sc4c(c3C#N)CCCC4)c2c1	-1.53
CC(=O)c1ccc2c(c1)N(C)c1ccccc1S2	3
O=C(NCCN1CCOCC1)c1ccccc1Br	-9.7
Nc1c(Cl)ncnc1NCCCn1ccnc1	-1.52
COc1ccc2c(CNCCc3ccc(OC)c(OC)c3)c(C(=O)O)n(C)c2c1	5.43
O=S(=O)(c1ccc(F)cc1)N1CCCC(CO)C1 (stereo not drawn)	-0.551
CCn1nc(-c2cccc(Cl)c2)nc2c(=O)n(C)c(=O)nc1-2	2.19
O=C1c2[nH]nc(-c3ccccc3O)c2C(c2cccc(Br)c2)N1CCCO (stereo not drawn)	9.54
O=C(Cn1nc(-c2ccccc2)ccc1=O)NCCCN1CCOCC1	-4.83
COc1ccc(S(=O)(=O)Nc2c(O)oc3ccccc3c2=O)cc1OC	3
COc1cc(CNC(C)(C)CO)cc(Cl)c1OCc1ccc(F)cc1	7.74
CCc1ccc(S(=O)(=O)NCc2csc(-c3ccccc3)n2)cc1	2.57
CNc1nc(C(N)=O)nc(N2CCOCC2)n1	0.778
CCOC(=O)c1cc(CC)sc1NC(N)=O	-0.273

Compound	% Inhibition @ 10 uM [%]
O=C(Nc1ccc(C(=O)N2CCCCC2)cc1)c1ccc(Br)cc1	3.53
CC(C)C[C@H](NC(=O)c1ccnc(N(C)C)c1)C(=O)NCC#N	0.744
CCC(C)[C@H](NC(=O)N1CCN(C)CC1)C(=O)N[C@H]1CCN(Cc2ccccc2)C1 (stereo partly drawn)	-0.778
NS(=O)(=O)c1ccc(CCNC(=O)c2cccc(Cl)c2)cc1	-12.8
Cc1cc(=O)oc2c1c(C)nn2-c1nn[nH]n1	-5.51
NC(=O)c1c(NC(=O)c2cccs2)sc2c1CCC2	1.57
Cn1c(=O)c2c(nc3n(CC(O)c4ccccc4)c(-c4ccc(Br)cc4)cn23)n(C)c1=O (stereo not drawn)	-0.0925
CC(C)CN1C(=O)c2ccccc2C(C(=O)Nc2ccc(Cl)cn2)C1c1cccs1 (stereo not drawn)	-6.87
O=C(CCn1c(=O)c2cccn2c2cccnc21)N1CCN(Cc2ccccc2)CC1	7.39
COc1ccc(-c2nc(-c3ccc(OC)cc3)c(-c3ccc(OC)cc3)[nH]2)cc1	-0.0369
CCOC(=O)C1=C(CN2CCC3(CC2)OCCO3)NC(=O)NC1c1ccco1 (stereo not drawn)	2.39
CCOC(=O)c1c(C)c(-c2ccccc2)n(CC(=O)NC(C)c2ccccc2)c1C (stereo not drawn)	0.0579
CC(C)Nc1nc(Nc2ccc([N+](=O)[O-])cc2)nc(OC(C(F)(F)F)C(F)(F)F)n1	3.34
CCN1C(=O)C(CC(=O)Nc2ccccc2)S/C1=N\c1ccc(Br)cc1 (stereo not drawn)	-1.61
COc1ccccc1CNCc1ccoc1	0.177
CC1CCc2c(O)nc3ccccc3c2O1 (stereo not drawn)	0.385
COc1ccc(C2CC(C(F)(F)F)n3nc(C(=O)N4CCCCC4C)c(Cl)c3N2)cc1OC (stereo not drawn)	6.42
COc1ccc(C2NCCC3(O)CCCCC23)cc1Br (stereo not drawn)	-5.48
CC(C)(Oc1ccc2sc3ccccc3c2c1)C(=O)O	-4.72
O=C(c1cc2ccccc2oc1=O)N(Cc1ccccc1F)C1CCS(=O)(=O)C1 (stereo not drawn)	5.17
Cc1ccc(CNC(=O)C2CCC(CNS(=O)(=O)c3cccc4nsnc34)CC2)cc1 (stereo not drawn)	-0.465
O=C(NC(n1cnc2c(N3CCOCC3)ncnc21)C(Cl)(Cl)Cl)c1ccccc1 (stereo not drawn)	2.79
Cn1c(=O)c2nc(Cl)n(Cc3ccccc3)c2n(C)c1=O	-8.76
O=C(NCCc1ccccc1)c1ccc(Cl)s1	-0.413
